Results as given in PubChem BioAssay AID686978 (National Center for Advancing Translational Sciences (NCATS), 2013).
Several values for one entry are separate records, joined by “and”; a condition that tells them apart may be missing. Equal values may be shown once. Out of some 420,000 compounds screened, about 64,000 (15%) were called active. Inconclusive means that the source gave no clear call. Such entries were picked first, then a sample of the others. Calls come from the whole dose curve; as a rule, active = well fitted inhibition curve with a large enough effect; inconclusive = small, poorly fitted or top-dose-only effect; inactive = flat fitted curve, though single readings scatter. A potency beside an inconclusive call is a rough fit, not a confirmed value.

Experiment: qHTS for Inhibitors of human tyrosyl-DNA phosphodiesterase 1 (TDP1): qHTS in cells in absence of CPT; note: nearly all actives have a fitted effect of over 55% in size
Conditions: DT40 Tdp1-/- hTDP1 cells, no CPT, ATP luminescence, 48 h; activity change, negative = growth inhibition: at 46.2 µM (top of the series) unless noted
In short: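 Stably hTDP1-transfected Tdp1-null chicken DT40 cells were treated with library compounds minus camptothecin and grown for at least 48 hr at 37 °C, after which cellular ATP was quantified by luminescence.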
% is set by controls: 0 for no effect and ±100 for the full control effect; potency is the fitted concentration of half-maximal effect; tags give direction and shape of the fitted curve.

| SMILES | Potency | activity change, negative = growth inhibition |
| --- | --- | --- |
| Cc1cccc(NS(=O)(=O)c2ccc(C3CCCCC3)cc2)c1 | active: 14.6 µM |  |
| O=C(NNC(=O)c1ccccc1O)c1ccc(NS(=O)(=O)c2ccc(F)c(F)c2)cc1 | inconclusive: 29.1 µM [inhibitor, single point] |  |
| O=C(C1CC12CCN(Cc1cccc3cccnc13)CC2)N1CCN(Cc2cccs2)CC1 (stereo not drawn) | inconclusive: 23.1 µM [inhibitor, single point] |  |
| COc1ccc(NC(=S)SC)cc1OC | inactive |  |
| Cc1ccc(S(=O)(=O)N2CCC(=O)N(CCOC(=O)Nc3cc(C)cc(C)c3)CC2)cc1 | inconclusive: 25.9 µM [inhibitor, single point] |  |
| COc1ccc(OC)c(/C=N/NC(=O)CC(=O)NC2CCCCC2)c1 | inactive |  |
| Cc1nc(N2CCN(C(=O)c3ccco3)CC2)nc2c1C(=O)CCC2 | inactive |  |
| Cc1ccccc1N(C(=O)CNC(=O)c1ccco1)C(C(=O)NC1CCCCC1)c1ccncc1 (stereo not drawn) | inactive |  |
| O=C(c1cc(S(=O)(=O)N2CCOCC2)ccc1Cl)N1CCN(c2ccccn2)CC1 |  | inconclusive: -30.2% [inhibitor] |
| CC(=O)Nc1cccc(C(=O)OCC(=O)c2ccc3c(c2)OCO3)c1 | inactive |  |
| CCOc1ccc(-n2c(SCC(=O)NC3CCCCC3)nc3c([nH]c4ccccc43)c2=O)cc1 | inconclusive: 13 µM [inhibitor, partial curve] |  |
| Cc1nn2c(C)c(C(=O)Nc3ccccc3)cnc2c1-c1ccccc1 | inconclusive: 16.4 µM [inhibitor, partial curve] |  |
| CN(C)C(=S)Nc1cccc(C(F)(F)F)c1 |  | inconclusive: -13.7% [inhibitor] |
| CCC1Cc2[nH]c(=S)[nH]c(=O)c2C(c2ccc(Cl)cc2)O1 (stereo not drawn) | inactive |  |
| Cc1cc([N+](=O)[O-])ccc1-c1ccc(/C=N/NC(=O)Cc2ccccc2)o1 | inconclusive: 25.9 µM [inhibitor, single point] |  |
| CC(O)(C(=O)Nc1ccc(S(=O)(=O)c2ccccc2)cc1)C(F)(F)F (stereo not drawn) | inconclusive: 32.8 µM [inhibitor, single point] |  |
| Cc1cc(C)n(-c2cc(N3CCN(S(=O)(=O)c4ccc(Br)cc4)CC3)ccc2[N+](=O)[O-])n1 | active: 11.6 µM |  |
| CCN(CC)CCCN(C(=O)c1ccco1)c1nc(-c2ccc(C)cc2)cs1 | inconclusive: 29.1 µM [inhibitor, single point] |  |
| CN(Cc1ccccc1)S(=O)(=O)c1ccc(Cl)c(C(=O)O)c1 | inactive |  |
| O=C1c2ccccc2[C@@H]2C[C@@H](O)[C@H](Nc3cccc(C(F)(F)F)c3)CCN12 | inconclusive: 29.1 µM [inhibitor, single point] |  |
| CCOC(=O)N1CCN(C(c2ccnc3ccccc23)c2nnnn2-c2ccc3c(c2)OCCO3)CC1 (stereo not drawn) | active: 16.4 µM |  |
| COc1ccc2nc(C)cc(Nc3ccc(Cl)c(Cl)c3)c2c1 | active: 1.84 µM |  |
| Cc1cccc(Cn2cc(S(=O)(=O)c3cccc(C)c3)c(=O)c3cc(F)c(N4CCOCC4)cc32)c1 | inconclusive: 20.6 µM [inhibitor, single point] |  |
| Cc1ccc(CNC(=O)CCCn2c(=O)[nH]c3ccc(Br)cc3c2=O)cc1 | inactive |  |
| CN(C(=O)c1cccc(NC(=O)Cc2ccc([N+](=O)[O-])cc2)c1)C1CCCCC1 | active: 14.6 µM |  |

| SMILES | Potency | activity change, negative = growth inhibition |
| --- | --- | --- |
| Cc1cc2nc3n(c2cc1C)CCCN3 | inconclusive: 29.1 µM [inhibitor, single point] |  |
| CC(C)CN(C(=O)c1nn(C)c(=O)c2ccccc12)c1nc2ccccc2s1 | inconclusive: 14.6 µM [inhibitor, partial curve, poor fit] |  |
| CN(C)c1nc2c(N)ncnc2n1C1OC(CO)C(O)C1O (stereo not drawn) | inactive |  |
| CC(=O)Nc1ccc(N(C(=O)c2ccccn2)C(C(=O)NC2CCCCC2)c2ccc(F)cc2)cc1 (stereo not drawn) | inactive |  |
| O=C(Cn1c(=O)oc2cc(S(=O)(=O)N3CCCCC3)ccc21)NCc1ccc(Cl)cc1 | active: 7.31 µM |  |
| NC(=O)C1Cc2ccccc2CN1C(=O)c1cc(C2CC2)nn1-c1ccccc1 (stereo not drawn) | inactive |  |
| CCCCn1c(=NC(=O)c2cc3ccccc3o2)c(C(=O)OCC)cc2c(=O)n3ccccc3nc21 | inactive |  |
| COc1ccccc1C(CC(=O)Nc1ccccc1C)c1ccc(OC(C)C)cc1 (stereo not drawn) | inconclusive: 23.1 µM [inhibitor, single point] |  |
| COc1ccc(CN2C(=O)CN(S(C)(=O)=O)CC2(C)C(=O)NCc2ccccc2)cc1OC (stereo not drawn) | inactive |  |
| Cc1ccc(/C=C/C(=O)Nc2cc(S(=O)(=O)N3CCCCCC3)ccc2OCC(F)(F)F)o1 | inconclusive: 29.1 µM [inhibitor, single point] |  |
| CCCOc1ccc(C(F)(F)F)cc1NS(=O)(=O)c1ccc(Cl)nc1 | inconclusive: 16.4 µM [inhibitor, single point] |  |
| Cn1c(/C(C#N)=C/c2ccc(-c3ccc(S(N)(=O)=O)cc3)o2)nc2ccccc21 | active: 14.6 µM |  |
| C/C(Cc1ccccc1)=N\NC(=O)CNC(=O)c1ccc(Cl)cc1 | inactive |  |
| CC(/C=N/NC(=O)c1cc(C(C)C)[nH]n1)=C\c1ccccc1 | inconclusive: 29.1 µM [inhibitor, single point] |  |
| CCN(C(=O)COC(=O)c1cn(-c2ccccc2)nc1-c1ccccc1)C1CCS(=O)(=O)C1 (stereo not drawn) | inconclusive: 29.1 µM [inhibitor, single point] |  |
| COc1cccc(SCc2noc(C(=O)NCC3CC3)c2C(=O)NCC2CC2)c1 | inconclusive: 18.4 µM [inhibitor, single point] |  |
| O=C(Oc1ccc(Cl)cc1)c1cc(-c2ccc3c(c2)OCCO3)on1 | inactive |  |
| COc1ccc2c(c1)C=C(CN1CCC(CO)(CCc3ccccc3)CC1)CO2 | inconclusive: 18.4 µM [inhibitor, single point] |  |
| Cc1nn(CC(=O)NC2CCCCC2)c(=O)c2cccn12 | inactive |  |
| O=C(c1ccco1)N1CCC[C@@]2(CCN(c3ccccn3)C2)C1 |  | inconclusive: -30.8% [inhibitor] |
| O=C(N=C1SC2CS(=O)(=O)CC2N1c1c(Cl)cccc1Cl)C1CC1 (stereo not drawn) | inactive |  |
| Cc1ccc(N2C(=O)c3ccccc3C2(O)c2ncc[nH]2)cc1 (stereo not drawn) | inactive |  |
| Cc1cccc(N2CCN(S(=O)(=O)c3ccc4c(c3)CC(=O)N4C)CC2)c1C | inconclusive: 9.2 µM [inhibitor, partial curve] and inconclusive: 29.1 µM [inhibitor, single point] |  |
| O=C(C[C@@H]1C/C=C\CC[C@H](Cc2ccc(F)cc2)C(=O)OC[C@@H]2CCCN2C1=O)NCCO | inconclusive: 8.2 µM [inhibitor, partial curve, poor fit] |  |
| COc1ccc(-c2onc(C)c2C)cc1S(=O)(=O)NCC1CCN(Cc2cc(C)ccc2C)CC1 | active: 16.4 µM |  |

| SMILES | Potency | activity change, negative = growth inhibition |
| --- | --- | --- |
| C=C(C)Cn1c(SCC(=O)N/N=C/c2c(O)ccc3ccccc23)nc2ccccc2c1=O | active: 6.51 µM |  |
| COC(=O)C1=C(C)N(C)C(C)=C(C(=O)OC)C1c1ccc(Cl)cc1 |  | inconclusive: -31.7% [inhibitor] |
| FC(F)(F)c1cccc(-c2nc3ccccc3n2C(c2ccccc2)c2nc3ccccc3[nH]2)c1 (stereo not drawn) | inconclusive: 29.1 µM [inhibitor, single point] |  |
| Cc1ccc(OCC(O)CN2CCCC2)cc1 (stereo not drawn) | inactive |  |
| CCOC(=O)C1=C(COC(=O)c2cc(OC)c(OC)c(OC)c2)NC(=O)NC1C (stereo not drawn) | inconclusive: 23.1 µM [inhibitor, single point] |  |
| O=C(CCNS(=O)(=O)c1ccc(Br)s1)N1CCN(c2ccccc2)CC1 | inconclusive: 20.6 µM [inhibitor, single point] |  |
| Cc1ccccc1N=Nc1c(O)[nH]c2ccccc12 | inconclusive: 29.1 µM [inhibitor, single point] |  |
| COC1OC2COC(c3ccccc3)OC2C(O)C1NC(=O)c1ccccc1 (stereo not drawn) | inconclusive: 18.4 µM [inhibitor, single point] |  |
| COCC(=O)N(Cc1cc2cc(C)ccc2[nH]c1=O)c1cccc(C)c1C | inconclusive: 23.1 µM [inhibitor, partial curve, poor fit] |  |
| CCn1c(=O)c2cc(C(=O)NCCCN3CCC(C)CC3)sc2c2ccccc21 | active: 18.4 µM |  |
| CN(C)c1ccc(/C=C(/C(=O)c2ccc(Cl)cc2Cl)n2cncn2)cc1 | active: 23.1 µM |  |
| COc1ccc(Br)cc1C(=O)Nc1ccc(N2CCN(S(C)(=O)=O)CC2)cc1 | inconclusive: 23.1 µM [inhibitor, partial curve] |  |
| COc1ccc(S(=O)(=O)Cc2ccc(C(=O)N3CCN(C(=O)c4ccco4)CC3)o2)cc1 | inactive |  |
| O=C(N/N=C/c1cccc(OCC(=O)N2CCCC2)c1)C(=O)Nc1ccccc1F | inconclusive: 23.1 µM [inhibitor, single point] |  |
| CCCCc1noc(-c2c(-c3ccccc3Cl)noc2C)n1 | inactive |  |
| CCN1CC(CN(C)Cc2cn(-c3cccc(C)c3)nc2-c2cccc(F)c2)CC1=O (stereo not drawn) | active: 18.4 µM |  |
| CC(C)Oc1ccc(CCN=C(N)N=C(N)N)cc1Cl | active: 11.6 µM |  |
| Cc1ccc(S(=O)(=O)C2(C(=O)N3CCCCCC3)CC2)cc1 | inactive |  |
| O=C(CSCc1cnn(-c2ccccc2)c1-n1cccc1)NCc1cccs1 | inconclusive: 32.6 µM [inhibitor, single point] |  |
| Cc1cccc(NC(=S)NCCC(c2ccccc2)c2ccccc2)c1 | active: 16.4 µM |  |
| CC(=O)N(c1ccccc1C)C1CCCC1 | inconclusive: 0.411 µM [inhibitor, full curve, poor fit] |  |
| C[C@H](N)CCCP(=O)(O)O | inactive |  |
| Cc1ccc(N=Cc2c(O)ccc3ccccc23)cc1F | inconclusive: 18.4 µM [inhibitor, single point] |  |
